# Assay results published in PubChem BioAssay AID1347417 (National Center for Advancing Translational Sciences (NCATS), 2020).
# Out of some 120,000 compounds screened, about 5,300 (4.4%) were called active. Inconclusive means that the source gave no clear call. Such entries were picked first, then a sample of the others. Calls come from the whole dose curve; as a rule, active = well fitted inhibition curve with a large enough effect; inconclusive = small, poorly fitted or top-dose-only effect; inactive = no such curve, though single readings can be large or run the other way. Where the call is inconclusive, the potency comes from a doubtful curve fit.
# Assay: qHTS Primary assay for Inhibitors of Plasmodium falciparum Dd2 growth in vitro; note: nearly all actives have a fitted effect of over 65% in size
# Conditions: P. falciparum Dd2 growth, SYBR Green, 72 h; series mostly up to 28.9 µM
# Summary of the method: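 Readout: SYBR Green fluorescence, 485 nm excitation, 535 nm emission, after ~16 h lysis at 37C. Before that, Dd2-infected red cells (2.5% hematocrit) grew 72 h with compound, 29 uM top final concentration.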
# Potency is the fitted concentration of half-maximal effect; tags give direction and shape of the fitted curve.
row,SMILES,Potency
1,CCc1ccc(CN2C(=O)c3ccccc3C2C(=O)NCCc2ccc(OC)c(OC)c2)cc1 (stereo not drawn),"inconclusive: 17.8 µM [inhibitor, single point]"
2,Cn1ccnc1C(=O)N1CCCCCCNC(=O)[C@@H]2C[C@@H](c3nc(Cc4ccccc4)no3)C[C@@H]21,inactive
3,CCCCn1c2ccc(F)cc2c2nnc(SCCN(CC)CC)nc21,"inconclusive: 12.6 µM [inhibitor, single point]"
4,Cc1ncc2c(c1CNC(=O)c1cccc(N3CCOCC3)c1)CCNC2,inactive
5,CCn1cc(CN2CCN(C(=O)c3ccsc3)CC2)ccc1=O,"inconclusive: 0.178 µM [inhibitor, full curve, poor fit]"
6,COc1ccc(-c2ccnc3nc(C4CCCO4)nn23)c(F)c1 (stereo not drawn),"inconclusive: 7.94 µM [inhibitor, partial curve]"
7,COc1cc(C2CC(=O)c3c([nH]c(C(=O)OC4CCCCC4)c3C)C2)cc(OC)c1OC (stereo not drawn),"inconclusive: 5.01 µM [inhibitor, partial curve, poor fit]"
8,Cc1cn2nnc(C(=O)NCc3ccncc3)c2c(=O)[nH]1,inactive
9,COc1ccc(-c2noc([C@@H]3CCCN3C(=O)Cc3ccc(C)cc3)n2)cc1,"inconclusive: 3.98 µM [inhibitor, single point]"
10,Cc1ccccc1NC(=O)CSC1=Nc2ccccc2C2=NC(CCC(=O)NCc3ccccc3)C(=O)N12 (stereo not drawn),"inconclusive: 17.8 µM [inhibitor, single point]"
11,Cc1ccc(CN2CCCC(c3nc(-c4cccnc4)no3)CCNC(=O)CC2)o1 (stereo not drawn),"inconclusive: 10 µM [inhibitor, single point]"
12,COc1ccc(-n2nc(C(=O)Nc3cccc(C(F)(F)F)c3)c3c4ccccc4n(C)c3c2=O)cc1,"inconclusive: 17.8 µM [inhibitor, single point]"
13,O=C(CSC1=Nc2ccccc2C2=NC(Cc3ccccc3)C(=O)N12)Nc1ccccc1F (stereo not drawn),"inconclusive: 10 µM [inhibitor, single point]"
14,COc1ccc(CNC(=O)N2CCCC(Cc3nncn3C(C)C)C2)cc1 (stereo not drawn),inactive
15,Cc1cc(C)cc(OCC(=O)Nc2ccc(S(=O)(=O)Nc3onc(C)c3C)cc2)c1,"inconclusive: 17.8 µM [inhibitor, partial curve, poor fit]"
16,Oc1ccc(-c2nc(C3CC3)nc3c2CN(Cc2cncs2)CC3)cc1,inactive
17,COc1ccc(CNC(=O)C[C@@H]2CCNC[C@@H]2Cc2cc(C(C)(C)C)on2)cc1,"inconclusive: 31.6 µM [inhibitor, single point]"
18,CCOc1ccc(-c2nc(SCC(=O)NCCOC)c(-c3ccc(OC)c(OC)c3)[nH]2)cc1,"inconclusive: 14.1 µM [inhibitor, single point]"
19,CCc1ccc(-n2nc(C)c3c(C(=O)Nc4cc(OC)cc(OC)c4)cc(C)nc32)cc1,"inconclusive: 10 µM [inhibitor, single point]"
20,Cc1nn(-c2ccccc2[N+](=O)[O-])c(C)c1[C@@H]1C=C[C@@H](NC(=O)Nc2cccc(C#N)c2)C1,"inconclusive: 10 µM [inhibitor, single point]"
21,COc1ccc(CNC(=O)Cn2c(SCC(=O)Nc3ccc(C)c(C)c3)nc3ccccc32)cc1,"inconclusive: 11.2 µM [inhibitor, partial curve, poor fit]"

row,SMILES,Potency
1,O=C(NC1CCc2nnc(C3CC3)n2CC1)c1ccc2ccccc2n1 (stereo not drawn),"inconclusive: 4.47 µM [inhibitor, partial curve, poor fit]"
2,CN1C(=O)C(C)(C)c2cc(S(=O)(=O)NCc3ccc(C(=O)Nc4ccc(Cl)cc4)cc3)ccc21,inactive
3,Clc1cc(NC2CCCCCC2)n2nccc2n1,"inconclusive: 31.6 µM [inhibitor, single point]"
4,COc1cccc(CN2CCCCC23Cc2ccccc2CNC3=O)c1 (stereo not drawn),"inconclusive: 12.6 µM [inhibitor, partial curve, poor fit]"
5,O=C(NCc1ccccc1)C1=NO[C@@H]2CN(Cc3ccc(F)c(F)c3)C[C@H]12,inactive
6,COc1ccc(-c2cc3c(=O)n(CCNC(=O)c4ccsc4)ccn3n2)cc1,"inconclusive: 10 µM [inhibitor, partial curve, poor fit]"
7,O=C1CCC(C(=O)N2C[C@@H](COCC3CC3)[C@H](c3ccccn3)C2)=NN1,inactive
8,CCCN1CCN(C(=O)c2cc3c(s2)CCN(C(=O)c2ccc(F)cc2)C3)CC1,"inconclusive: 0.0631 µM [inhibitor, full curve, poor fit]"
9,CCCCn1cc(S(=O)(=O)c2ccc(OC)cc2)c(=O)c2cc(F)c(N3CCCC3)cc21,inactive
10,NC(=O)[C@@H](Cc1c[nH]c2ccccc12)NC(=O)[C@@H]1CN(C(=O)Nc2ccccc2)CCN1C(=O)c1cccs1,inactive
11,Cc1ccc(F)cc1CN1CCOc2cc([S+](=O)([O-])N(C)C)ccc2C1,inactive
12,O=C([C@@H]1CCCN1Cc1cc(=O)c2cc(F)ccc2[nH]1)N1CCCCC1,"inconclusive: 12.6 µM [inhibitor, single point]"
13,Cc1cc(C)cc(N2C(=O)N(CC(=O)c3ccc(Br)cc3)c3ccccc3S2(=O)=O)c1,"inconclusive: 7.94 µM [inhibitor, partial curve, poor fit]"
14,COC(=O)c1cc2n(n1)CCN(C(=O)c1cc(CC(C)C)[nH]c(=O)n1)C2,inactive
15,COc1ccc(C(=O)Nc2ccc3nc(SCC(=O)N4CCCc5ccccc54)sc3c2)cc1,"inconclusive: 10 µM [inhibitor, single point]"
16,O=C(Cc1ccc(F)cc1)N1CCC2(CC1)CCN(CCc1ccccc1)c1ccccc1O2,"inconclusive: 20 µM [inhibitor, single point]"
17,CCOc1ccccc1C(=O)N1CCC2(CC1)N=C(c1cccc(Br)c1)NO2,inactive
18,O=C(NCC(c1cccnc1)N1CCc2ccccc21)c1cccc(C(F)(F)F)c1 (stereo not drawn),"inconclusive: 11.2 µM [inhibitor, single point]"
19,COc1ccc(-c2cc(-c3ccccc3)nc(SCC(=O)CC(=O)OC(C)C)c2C#N)cc1,"inconclusive: 11.2 µM [inhibitor, single point]"
20,c1ccc2c(c1)CNC1(CCN(Cc3cccc4ccccc34)CC1)CO2,active: 2 µM
21,CCN(CCCNC(=O)c1cc2c(=O)n(CC)c3ccccc3c2s1)c1ccccc1,inactive

row,SMILES,Potency
1,CNC(=O)CCn1ncc2cc(OC3CCc4cccc(-c5cccc(OC)c5)c43)ccc21 (stereo not drawn),"inconclusive: 0.501 µM [inhibitor, single point]"
2,Cc1nc(-c2ccc(F)cc2)n(CC(=O)Nc2ccc3c(c2)OCO3)c(=O)c1CCO,"inconclusive: 8.91 µM [inhibitor, partial curve, poor fit]"
3,COc1ccc2[nH]cc(CCNC(=O)C3(Cc4ccccc4)CCCCC(=O)N3)c2c1 (stereo not drawn),active: 2 µM
4,Cc1cccc(C(=O)NCc2nnc3cc(-c4nc(C5CC5)no4)ccn23)c1,"inconclusive: 11.2 µM [inhibitor, partial curve, poor fit]"
5,CC(C)Cn1c(CNC(=O)OC(C)(C)C)nc2cccnc21,inactive
6,CCOc1ccc(CCCNC(=O)c2c(C)cc(C)n(C)c2=O)cc1OCC,inactive
7,O=C(CCC1CCCN(Cc2cn[nH]c2-c2ccc(F)cc2)C1)Nc1ccccc1F (stereo not drawn),"inconclusive: 12.6 µM [inhibitor, partial curve]"
8,COc1ccc(N2CCN(C(=O)c3ccc(-c4nc(COc5ccccc5)c(C)o4)cc3)CC2)cc1,"inconclusive: 2.82 µM [inhibitor, partial curve]"
9,C[S+](=O)([O-])c1ccc(-c2cc3c(cn2)CN(CCc2ccccc2)CCN3)cc1,"inconclusive: 12.6 µM [inhibitor, partial curve, poor fit]"
10,COc1cccc(C2C(C(=O)Nc3ccc(C)cc3C)=C(C)Nc3c(C(=O)Nc4cccc(C)c4)cnn32)c1OC (stereo not drawn),"inconclusive: 10 µM [inhibitor, single point]"
11,CCN(C(=O)CSc1nc2ccccc2n1Cc1cc(C)ccc1C)c1ccccc1,"inconclusive: 17.8 µM [inhibitor, single point]"
12,COCCN[C@H]1[C@@H]2OC[C@@H](O2)[C@@H](NCc2cnc3ccccc3c2)[C@@H]1O,"inconclusive: 15.8 µM [inhibitor, single point]"
13,CCCNC(=O)C(NC(=O)c1ccccc1)C1CCN(C(=O)c2ccccc2F)CC1 (stereo not drawn),inactive
14,CCOC(=O)N1CCc2c(sc3c2c(=O)n(-c2ccc(CC)cc2)c(=O)n3CC(=O)c2ccc(F)cc2)C1,active: 7.94 µM
15,Fc1ccc(CNC2(Cc3cc(-c4ccccc4)on3)COC2)cc1,inactive
16,CCOc1ccc(C(=O)N[C@H]2CCOC[C@H]2C2CCOCC2)o1,inactive
17,COC(=O)C1=CN(Cc2cccc(Cl)c2)S(=O)(=O)N=C1C,"inconclusive: 17.8 µM [inhibitor, single point]"
18,COc1ccc(CCC(=O)N2CCCN(C(=O)C3CC3)C(c3ccccc3)CC(=O)NCC2)cc1 (stereo not drawn),"inconclusive: 17.8 µM [inhibitor, single point]"
19,O=C(Cc1cccc(Cl)c1)N1CCC2(CC1)CN[S+](=O)([O-])c1cccnc1O2,"inconclusive: 10 µM [inhibitor, single point]"
20,CC(C)(C)OC(=O)N1CCC(c2c(C(=O)N3CCc4ccccc4C3)cnn2-c2ccc(F)cc2)CC1,"inconclusive: 8.91 µM [inhibitor, partial curve, poor fit]"
21,COc1ccc(C(C)C)cc1S(=O)(=O)NCCc1c(C)[nH]c2ccc(C)cc12,"inconclusive: 11.2 µM [inhibitor, single point]"
